From patent US8933232B2, “1,3,4-oxadiazole and 1,3,4-thiadiazole beta-lactamase inhibitors” (priority 2012, dated 2015)
Where a name gives a salt, the structure may show the parent alone. Some entries share one result that the patent states for a list of compounds. At least one compound was matched to its structure with a doubt left.

Each molecule was assayed against KPC-2 β-lactamase (Klebsiella pneumoniae, UniProt Q9F663). Settings: KPC-2, 100 μM nitrocefin, PBS pH 7.4, 25° C.; Table IV.
Format: biochemical, K. pneumoniae

KPC-2 β-lactamase, sequence (Q9F663 25-293 limits assumed): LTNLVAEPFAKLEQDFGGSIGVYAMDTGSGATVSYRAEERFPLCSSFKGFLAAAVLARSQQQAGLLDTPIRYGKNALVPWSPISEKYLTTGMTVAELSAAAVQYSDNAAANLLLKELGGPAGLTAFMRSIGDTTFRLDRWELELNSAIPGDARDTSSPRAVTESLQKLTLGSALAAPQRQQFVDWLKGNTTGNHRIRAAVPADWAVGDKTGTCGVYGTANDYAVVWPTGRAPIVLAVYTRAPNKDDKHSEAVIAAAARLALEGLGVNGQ

Compound	binding affinity (kinact/K) for the β-lactamase enzyme
NCCc1nnc([C@@H]2CC[C@@H]3CN2C(=O)N3OS(=O)(=O)O)o1 [Compound 703, (2S,5R)-2-(5-(2-aminoethyl)-1,3,4-oxadiazol-2-yl)-7-oxo-1,6-diazabicyclo[3.2.1]octan-6-yl hydrogen sulfate]	100000 to 999000 M⁻¹ s⁻¹
O=C1N2C[C@@H](CC[C@H]2c2nnc(N3CCNCC3)o2)N1OS(=O)(=O)O [Compound 713, (2S,5R)-7-oxo-2-(5-(piperazin-1-yl)-1,3,4-oxadiazol-2-yl)-1,6-diazabicyclo[3.2.1]octan-6-yl hydrogen sulfate]	100000 to 999000 M⁻¹ s⁻¹
NCC(O)c1nnc([C@@H]2CC[C@@H]3CN2C(=O)N3OS(=O)(=O)O)o1 (stereo partly drawn) [Compound 715, (2S,5R)-2-(5-(2-amino-1-hydroxyethyl)-1,3,4-oxadiazol-2-yl)-7-oxo-1,6-diazabicyclo[3.2.1]octan-6-yl hydrogen sulfate]	1000 to 99000 M⁻¹ s⁻¹
NCCNCCc1nnc([C@@H]2CC[C@@H]3CN2C(=O)N3OS(=O)(=O)O)o1 [Compound 716, (2S,5R)-2-(5-(2-((2-aminoethyl)amino)ethyl)-1,3,4-oxadiazol-2-yl)-7-oxo-1,6-diazabicyclo[3.2.1]octan-6-yl hydrogen sulfate]	1000 to 99000 M⁻¹ s⁻¹
NCC(N)c1nnc([C@@H]2CC[C@@H]3CN2C(=O)N3OS(=O)(=O)O)o1 (stereo partly drawn) [Compound 717, (2S,5R)-2-(5-(1,2-diaminoethyl)-1,3,4-oxadiazol-2-yl)-7-oxo-1,6-diazabicyclo[3.2.1]octan-6-yl hydrogen sulfate]	1000 to 99000 M⁻¹ s⁻¹
NCCc1nnc([C@@H]2CC[C@@H]3CN2C(=O)N3OS(=O)(=O)O)s1 [Compound 718, (2S,5R)-2-(5-(2-aminoethyl)-1,3,4-thiadiazol-2-yl)-7-oxo-1,6-diazabicyclo[3.2.1]octan-6-yl hydrogen sulfate]	1000 to 99000 M⁻¹ s⁻¹
O=C1N2C[C@@H](CC[C@H]2c2nnc(C3CCNCC3)s2)N1OS(=O)(=O)O [Compound 719, (2S,5R)-7-oxo-2-(5-(piperidin-4-yl)-1,3,4-thiadiazol-2-yl)-1,6-diazabicyclo[3.2.1]octan-6-yl hydrogen sulfate]	1000 to 99000 M⁻¹ s⁻¹
NCCCc1nnc([C@@H]2CC[C@@H]3CN2C(=O)N3OS(=O)(=O)O)o1 [Compound 720, (2S,5R)-2-(5-(3-aminopropyl)-1,3,4-oxadiazol-2-yl)-7-oxo-1,6-diazabicyclo[3.2.1]octan-6-yl hydrogen sulfate]	100000 to 999000 M⁻¹ s⁻¹
CNCCc1nnc([C@@H]2CC[C@@H]3CN2C(=O)N3OS(=O)(=O)O)o1 [Compound 722, (2S,5R)-2-(5-(2-(methylamino)ethyl)-1,3,4-oxadiazol-2-yl)-7-oxo-1,6-diazabicyclo[3.2.1]octan-6-yl hydrogen sulfate]	1000 to 99000 M⁻¹ s⁻¹
NC1(Cc2nnc([C@@H]3CC[C@@H]4CN3C(=O)N4OS(=O)(=O)O)o2)CC1 [Compound 724, (2S,5R)-2-(5-((1-aminocyclopropyl)methyl)-1,3,4-oxadiazol-2-yl)-7-oxo-1,6-diazabicyclo[3.2.1]octan-6-yl hydrogen sulfate]	1000 to 99000 M⁻¹ s⁻¹
O=C1N2C[C@@H](CC[C@H]2c2nnc(CC3CNC3)o2)N1OS(=O)(=O)O [Compound 725, (2S,5R)-2-(5-(azetidin-3-ylmethyl)-1,3,4-oxadiazol-2-yl)-7-oxo-1,6-diazabicyclo[3.2.1]octan-6-yl hydrogen sulfate]	1000 to 99000 M⁻¹ s⁻¹
O=C1N2C[C@@H](CC[C@H]2c2nnc(CNC3CNC3)o2)N1OS(=O)(=O)O [Compound 726, (2S,5R)-2-(5-((azetidin-3-ylamino)methyl)-1,3,4-oxadiazol-2-yl)-7-oxo-1,6-diazabicyclo[3.2.1]octan-6-yl hydrogen sulfate]	1000 to 99000 M⁻¹ s⁻¹
N[C@@H]1CC[C@H](c2nnc([C@@H]3CC[C@@H]4CN3C(=O)N4OS(=O)(=O)O)o2)C1 [Compound 729, (2S,5R)-2-(5-((1S,3R)-3-aminocyclopentyl)-1,3,4-oxadiazol-2-yl)-7-oxo-1,6-diazabicyclo[3.2.1]octan-6-yl hydrogen sulfate]	1000 to 99000 M⁻¹ s⁻¹
NCC(O)Cc1nnc([C@@H]2CC[C@@H]3CN2C(=O)N3OS(=O)(=O)O)o1 (stereo partly drawn) [Compound 733, (2S,5R)-2-(5-(3-amino-2-hydroxypropyl)-1,3,4-oxadiazol-2-yl)-7-oxo-1,6-diazabicyclo[3.2.1]octan-6-yl hydrogen sulfate]	1000 to 99000 M⁻¹ s⁻¹
NCCCCc1nnc([C@@H]2CC[C@@H]3CN2C(=O)N3OS(=O)(=O)O)o1 [Compound 735, (2S,5R)-2-(5-(4-aminobutyl)-1,3,4-oxadiazol-2-yl)-7-oxo-1,6-diazabicyclo[3.2.1]octan-6-yl hydrogen sulfate]	1000 to 99000 M⁻¹ s⁻¹
O=C1N2C[C@@H](CC[C@H]2c2nnc(CCNCCO)o2)N1OS(=O)(=O)O [Compound 736, (2S,5R)-2-(5-(2-((2-hydroxyethyl)amino)ethyl)-1,3,4-oxadiazol-2-yl)-7-oxo-1,6-diazabicyclo[3.2.1]octan-6-yl hydrogen sulfate]	1000 to 99000 M⁻¹ s⁻¹
CC(C)(N)Cc1nnc([C@@H]2CC[C@@H]3CN2C(=O)N3OS(=O)(=O)O)o1 [Compound 737, (2S,5R)-2-(5-(2-amino-2-methylpropyl)-1,3,4-oxadiazol-2-yl)-7-oxo-1,6-diazabicyclo[3.2.1]octan-6-yl hydrogen sulfate]	1000 to 99000 M⁻¹ s⁻¹
O=C1N2C[C@@H](CC[C@H]2c2nnc([C@H]3[C@@H]4CNC[C@@H]43)o2)N1OS(=O)(=O)O [Compound 740, (2S,5R)-2-(5-(3-azabicyclo[3.1.0]hexan-6-yl)-1,3,4-oxadiazol-2-yl)-7-oxo-1,6-diazabicyclo[3.2.1]octan-6-yl hydrogen sulfate]	100000 to 999000 M⁻¹ s⁻¹
O=C1N2C[C@@H](CC[C@H]2c2nnc(CCCC3CNC3)o2)N1OS(=O)(=O)O [Compound 743, (2S,5R)-2-(5-(3-(azetidin-3-yl)propyl)-1,3,4-oxadiazol-2-yl)-7-oxo-1,6-diazabicyclo[3.2.1]octan-6-yl hydrogen sulfate]	100000 to 999000 M⁻¹ s⁻¹
O=C1N2C[C@@H](CC[C@H]2c2nnc(COC3CNC3)o2)N1OS(=O)(=O)O [Compound 744, (2S,5R)-2-(5-((azetidin-3-yloxy)methyl)-1,3,4-oxadiazol-2-yl)-7-oxo-1,6-diazabicyclo[3.2.1]octan-6-yl hydrogen sulfate]	1000 to 99000 M⁻¹ s⁻¹
O=C1N2C[C@@H](CC[C@H]2c2nnc(CCNC3CNC3)o2)N1OS(=O)(=O)O [Compound 745, (2S,5R)-2-(5-(2-(azetidin-3-ylamino)ethyl)-1,3,4-oxadiazol-2-yl)-7-oxo-1,6-diazabicyclo[3.2.1]octan-6-yl hydrogen sulfate]	100000 to 999000 M⁻¹ s⁻¹
N=C(N)N1CC(NCc2nnc([C@@H]3CC[C@@H]4CN3C(=O)N4OS(=O)(=O)O)o2)C1 [Compound 746, (2S,5R)-2-(5-(((1-carbamimidoylazetidin-3-yl)amino)methyl)-1,3,4-oxadiazol-2-yl)-7-oxo-1,6-diazabicyclo[3.2.1]octan-6-yl hydrogen sulfate]	100000 to 999000 M⁻¹ s⁻¹
O=C1N2C[C@@H](CC[C@H]2c2nnc(C3CC4(CNC4)C3)o2)N1OS(=O)(=O)O [Compound 750, (2S,5R)-2-(5-(2-azaspiro[3.3]heptan-6-yl)-1,3,4-oxadiazol-2-yl)-7-oxo-1,6-diazabicyclo[3.2.1]octan-6-yl hydrogen sulfate]	1000 to 99000 M⁻¹ s⁻¹
O=C1N2C[C@@H](CC[C@H]2c2nnc([C@H]3CCNC3)o2)N1OS(=O)(=O)O [Compound 758, (2S,5R)-7-oxo-2-(5-((S)-pyrrolidin-3-yl)-1,3,4-oxadiazol-2-yl)-1,6-diazabicyclo[3.2.1]octan-6-yl hydrogen sulfate]	1000 to 99000 M⁻¹ s⁻¹
O=C1N2C[C@@H](CC[C@H]2c2nnc([C@@H]3CCNC3)o2)N1OS(=O)(=O)O [Compound 759, (2S,5R)-7-oxo-2-(5-((R)-pyrrolidin-3-yl)-1,3,4-oxadiazol-2-yl)-1,6-diazabicyclo[3.2.1]octan-6-yl hydrogen sulfate]	1000 to 99000 M⁻¹ s⁻¹
N[C@@H]1CN[C@H](c2nnc([C@@H]3CC[C@@H]4CN3C(=O)N4OS(=O)(=O)O)o2)C1 [Compound 760, (2S,5R)-2-(5-((2S,4S)-4-aminopyrrolidin-2-yl)-1,3,4-oxadiazol-2-yl)-7-oxo-1,6-diazabicyclo[3.2.1]octan-6-yl hydrogen sulfate]	1000 to 99000 M⁻¹ s⁻¹
N[C@H]1CN[C@@H](c2nnc([C@@H]3CC[C@@H]4CN3C(=O)N4OS(=O)(=O)O)o2)C1 [Compound 761, (2S,5R)-2-(5-((2R,4R)-4-aminopyrrolidin-2-yl)-1,3,4-oxadiazol-2-yl)-7-oxo-1,6-diazabicyclo[3.2.1]octan-6-yl hydrogen sulfate]	1000 to 99000 M⁻¹ s⁻¹
N[C@H]1CN[C@H](c2nnc([C@@H]3CC[C@@H]4CN3C(=O)N4OS(=O)(=O)O)o2)C1 [Compound 762, (2S,5R)-2-(5-((2S,4R)-4-aminopyrrolidin-2-yl)-1,3,4-oxadiazol-2-yl)-7-oxo-1,6-diazabicyclo[3.2.1]octan-6-yl hydrogen sulfate]	1000 to 99000 M⁻¹ s⁻¹
N[C@@H]1CN[C@@H](c2nnc([C@@H]3CC[C@@H]4CN3C(=O)N4OS(=O)(=O)O)o2)C1 [Compound 763, (2S,5R)-2-(5-((2R,4S)-4-aminopyrrolidin-2-yl)-1,3,4-oxadiazol-2-yl)-7-oxo-1,6-diazabicyclo[3.2.1]octan-6-yl hydrogen sulfate]	1000 to 99000 M⁻¹ s⁻¹
